Results taken from US20250170255A1 (Daiichi Sankyo, published 2025).
Positions count from the first letter of the chain named.

Legend:
CD98 on FaDu cells = molecular target: T1, CD98 on FaDu cells (human, UniProt P08195 2-529); test: cell-based or functional assay
T1 sequence (looked up): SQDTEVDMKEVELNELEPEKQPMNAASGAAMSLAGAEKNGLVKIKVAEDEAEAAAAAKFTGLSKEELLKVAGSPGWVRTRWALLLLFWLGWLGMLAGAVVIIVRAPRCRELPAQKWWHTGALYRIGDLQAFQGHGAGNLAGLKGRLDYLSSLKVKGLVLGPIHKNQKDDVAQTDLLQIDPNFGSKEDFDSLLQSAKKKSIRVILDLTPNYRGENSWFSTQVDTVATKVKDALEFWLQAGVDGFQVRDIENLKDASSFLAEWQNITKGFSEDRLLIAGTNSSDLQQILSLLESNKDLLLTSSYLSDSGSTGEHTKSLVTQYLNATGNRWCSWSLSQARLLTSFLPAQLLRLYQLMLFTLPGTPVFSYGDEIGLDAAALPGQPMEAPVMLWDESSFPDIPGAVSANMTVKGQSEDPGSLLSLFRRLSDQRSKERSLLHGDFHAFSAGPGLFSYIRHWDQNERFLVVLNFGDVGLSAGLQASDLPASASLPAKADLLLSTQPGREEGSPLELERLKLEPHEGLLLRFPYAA

[1] = molecular target: T2, biotinylated human CD98 antigen (human, UniProt P08195 105-529, biotinylated with EZ-Link NHS-PEG4-Biotin (ELISA)); test: ELISA on immobilised biotinylated human CD98 antigen, pH 5.5
T2 construct: extracellular domain
T2 sequence (looked up): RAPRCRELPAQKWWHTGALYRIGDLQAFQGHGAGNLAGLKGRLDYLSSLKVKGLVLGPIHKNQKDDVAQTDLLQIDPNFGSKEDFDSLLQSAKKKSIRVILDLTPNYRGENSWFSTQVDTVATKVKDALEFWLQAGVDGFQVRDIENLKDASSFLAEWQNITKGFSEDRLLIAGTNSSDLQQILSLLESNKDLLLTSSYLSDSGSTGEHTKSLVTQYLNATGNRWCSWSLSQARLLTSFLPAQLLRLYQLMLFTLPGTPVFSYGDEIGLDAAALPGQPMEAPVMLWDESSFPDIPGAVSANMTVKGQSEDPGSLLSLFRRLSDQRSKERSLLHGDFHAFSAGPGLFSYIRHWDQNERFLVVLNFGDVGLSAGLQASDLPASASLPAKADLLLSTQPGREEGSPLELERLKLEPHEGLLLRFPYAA

[2] = molecular target: T2, biotinylated human CD98 antigen; test: ELISA pH 7.5 against pH 5.5
[3] = molecular target: T2, biotinylated human CD98 antigen; test: ELISA, immobilised biotinylated human CD98 antigen, chemiluminescence
[4] = molecular target: T2, biotinylated human CD98 antigen; test: SPR Biacore T200, antibody captured on anti-human IgG (Fc), CD98 antigen as analyte, multi-cycle kinetics
[5] = molecular target: T3, biotinylated amino terminal peptide of human GPRC5D (human, added C-terminal Lys carries biotin, K (Biotin)-NH2 (C-terminal amide)); test: ELISA, immobilised biotinylated amino terminal peptide of human GPRC5D, chemiluminescence
T3 construct: Synthetic peptide (Peptide Institute); also called human GPRC5D antigen
T3 peptide: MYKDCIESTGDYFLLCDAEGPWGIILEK

[6] = molecular target: T2, biotinylated human CD98 antigen; test: ELISA, immobilised biotinylated human CD98 antigen, chemiluminescence; pH 7.5
[7] = molecular target: T2, biotinylated human CD98 antigen; test: ELISA, immobilised biotinylated human CD98 antigen, chemiluminescence; pH 5.5

B1: MhM1024-M1-DXd-ADC (antibody, human IgG1, kappa)
heavy: QVQLVQSGAEVKKPGASVKVSCKASGAAFSNYLIEWVRQAPGQGLEWMGVINPGSGVTNYNEKFKGRVTITADTSTSTAYMELSSLRSEDTAVYYCARAEAWFAYWGQGTLVTVSSASTKGPSVFPLAPSSKSTSGGTAALGCLVKDYFPEPVTVSWNSGALTSGVHTFPAVLQSSGLYSLSSVVTVPSSSLGTQTYICNVNHKPSNTKVDKRV[human IgG1 Fc not spelt out]
light: GNFYHQYPWPLEILGSGGGGSGHHHGGHHHGGHHHGGSDIVMTQSPDSLAVSLGERATINCKSSQSLLYSSNQKNYLAWYQQKPGQPPKLLIYWASTRESGVPDRFSGSGSGTDFTLTISSLQAEDVAVYYCQRYYGYPWTFGQGTKVEIKRTVAAPSVFIFPPSDEQLKSGTASVVCLLNNFYPREAKVQWKVDNALQSGNSQESVTEQDSKDSTYSLSSTLTLSKADYEKHKVYACEVTHQGLSSPVTKSFNRGEC
modifications: Linker 1 (DXd drug linker) on cysteines of reduced disulfide bonds between antibody chains; Linker 1 (DXd drug linker) on cysteines of reduced disulfide bonds between antibody chains; average number of drugs bound 7.2 per antibody
in vitro growth inhibitory activity on FaDu cells, EC50 ratio (pH 7.4/pH 5.5) (CD98 on FaDu cells): 10.9

B2: MhM1018-M1-DXd-ADC (antibody, human IgG1, kappa)
heavy: B1 heavy
light: GNFYHQYPWPLEILGSGSGGGGSGGGGSGGGGSGGSDIVMTQSPDSLAVSLGERATINCKSSQSLLYSSNQKNYLAWYQQKPGQPPKLLIYWASTRESGVPDRFSGSGSGTDFTLTISSLQAEDVAVYYCQRYYGYPWTFGQGTKVEIKRTVAAPSVFIFPPSDEQLKSGTASVVCLLNNFYPREAKVQWKVDNALQSGNSQESVTEQDSKDSTYSLSSTLTLSKADYEKHKVYACEVTHQGLSSPVTKSFNRGEC
modifications: Linker 1 (DXd drug linker) on cysteines of reduced disulfide bonds between antibody chains; Linker 1 (DXd drug linker) on cysteines of reduced disulfide bonds between antibody chains; average number of drugs bound 7.4 per antibody
in vitro growth inhibitory activity on FaDu cells, EC50 ratio (pH 7.4/pH 5.5) (CD98 on FaDu cells): 2.8

B3: anti-CD98 masked antibody MhM1026-M1 (antibody)
heavy: B1 heavy
light: GNFYHQYPWPLEILGSGGGGSGGGHHHGGHHHGGHHHGGSDIVMTQSPDSLAVSLGERATINCKSSQSLLYSSNQKNYLAWYQQKPGQPPKLLIYWASTRESGVPDRFSGSGSGTDFTLTISSLQAEDVAVYYCQRYYGYPWTFGQGTKVEIKRTVAAPSVFIFPPSDEQLKSGTASVVCLLNNFYPREAKVQWKVDNALQSGNSQESVTEQDSKDSTYSLSSTLTLSKADYEKHKVYACEVTHQGLSSPVTKSFNRGEC
notes: Full-length entries
EC50 (read off the curve) [1]: ~8 nM | Comparison of EC50 ratio (neutral pH/acidic pH, relative to MhM1026-M1 designated as 1) [2]: 1

B4: anti-CD98 masked antibody MhM1028-M1 (antibody)
heavy: B1 heavy
light: B3 light with G29R
notes: Arg near the His cluster; Full-length entries
EC50 (read off the curve) [1]: ~2 nM | Comparison of EC50 ratio (neutral pH/acidic pH, relative to MhM1026-M1 designated as 1) [2]: 5.2

B5: anti-CD98 masked antibody MhM1042-M1 (antibody)
heavy: B1 heavy
light: B3 light with G24R
notes: as for B4
EC50 (read off the curve) [1]: ~2 nM | Comparison of EC50 ratio (neutral pH/acidic pH, relative to MhM1026-M1 designated as 1) [2]: 4.3

B6: anti-CD98 masked antibody MhM1043-M1 (antibody)
heavy: B1 heavy
light: B3 light with G34R
notes: as for B4
EC50 (read off the curve) [1]: ~3 nM | Comparison of EC50 ratio (neutral pH/acidic pH, relative to MhM1026-M1 designated as 1) [2]: 4

B7: anti-CD98 masked antibody MhM1044-M1 (antibody)
heavy: B1 heavy
light: B3 light with G29K
notes: Lys near the His cluster; Full-length entries
Comparison of EC50 ratio (neutral pH/acidic pH, relative to MhM1026-M1 designated as 1) [2]: 1.1

B8: anti-CD98 masked antibody MhM1045-M1 (antibody)
heavy: B1 heavy
light: B3 light with G24K
notes: as for B7
Comparison of EC50 ratio (neutral pH/acidic pH, relative to MhM1026-M1 designated as 1) [2]: 1

B9: anti-CD98 masked antibody MhM1046-M1 (antibody)
heavy: B1 heavy
light: B3 light with G34K
notes: as for B7
Comparison of EC50 ratio (neutral pH/acidic pH, relative to MhM1026-M1 designated as 1) [2]: 1.1

B10: anti-CD98 antibody hM23H1L1 (antibody)
heavy: B1 heavy with A27Y
light: DIVMTQSPDSLAVSLGERATINCKSSQSLLYSSNQKNYLAWYQQKPGQPPKLLIYWASTRESGVPDRFSGSGSGTDFTLTISSLQAEDVAVYYCQRYYGYPWTFGQGTKVEIKRTVAAPSVFIFPPSDEQLKSGTASVVCLLNNFYPREAKVQWKVDNALQSGNSQESVTEQDSKDSTYSLSSTLTLSKADYEKHKVYACEVTHQGLSSPVTKSFNRGEC
notes: Known antibody of WO 2015/146132; Full-length entries
EC50 (read off the curve) [3]: ~0.8 nM | Kd [4]: 0.58 nM

B11: anti-CD98 antibody hM23-M1 (antibody)
heavy: B1 heavy
light: B10 light with T115A
notes: Full-length entries
Kd [4]: 10.3 nM

B12: anti-GPRC5D antibody C3022 (antibody)
heavy: QVQLVQSGAEVKKPGASVKVSCKASGYTFTGYYMHWVRQAPGQGLEWMGRINPNSGGTNYAQKFQGRVTMTRDTSISTAYMELSGLRSDDTAVYYCASGSVRHPWGQGTLVTVSSASTKGPSVFPLAPSSKSTSGGTAALGCLVKDYFPEPVTVSWNSGALTSGVHTFPAVLQSSGLYSLSSVVTVPSSSLGTQTYICNVNHKPSNTKVDKRV[human IgG1 Fc not spelt out]
light: QPVLTQPPSASGTPGQRVTISCSGSRSNIGGNIVSWYQQFPGTAPRLLTYADNQRPSGVPDRFSGSKSGTSASLAISGLQSEDEADYYCAAWDDSLNGVVFGGGTKLTVLGQPKAAPSVTLFPPSSEELQANKATLVCLISDFYPGAVTVAWKADSSPVKAGVETTTPSKQSNNKYAASSYLSLTPEQWKSHRSYSCQVTHEGSTVEKTVAPTECS
notes: Known antibody of WO 2018/147245; Full-length entries
EC50 (read off the curve) [5]: ~0.3 nM

B13: anti-CD98 masked antibody MhM1018-M1 (antibody)
heavy: B1 heavy
light: B2 light
notes: No His cluster; Full-length entries
EC50 (read off the curve) [6]: ~100 nM | EC50 (read off the curve) [7]: ~80 nM

B14: anti-CD98 masked antibody MhM1024-M1 (antibody)
heavy: B1 heavy
light: B1 light
notes: His cluster linker; Full-length entries
EC50 (read off the curve) [6]: ~30 nM | EC50 (read off the curve) [7]: ~2 nM
